The densities may have been worked out from excess volumes.
Assay: xn = mol fraction of the nth substance listed
Conditions: 101 kPa

CCCCCCCCOS(=O)(=O)[O-].CC[n+]1ccn(C)c1 + O
Conditions | mass density [kg/m3]
292.15 K, x2 = 0.8237 | 1079.1
292.65 K, x2 = 0.8237 | 1078.7
292.95 K, x2 = 0.8237 | 1078.5
293.15 K, x2 = 0.8237 | 1078.3
293.25 K, x2 = 0.8237 | 1078.2
293.45 K, x2 = 0.8237 | 1078
293.65 K, x2 = 0.7822 | 1082.1
293.65 K, x2 = 0.8237 | 1077.8
293.85 K, x2 = 0.8237 | 1077.6
294.15 K, x2 = 0.7822 | 1081.7
294.15 K, x2 = 0.8104 | 1079.6
294.15 K, x2 = 0.8237 | 1077.4
294.15 K, x2 = 0.8384 | 1075.5
294.65 K, x2 = 0.7822 | 1081.2
294.65 K, x2 = 0.8104 | 1079.2
295.15 K, x2 = 0.8104 | 1078.7
295.15 K, x2 = 0.8237 | 1076.7
295.15 K, x2 = 0.8384 | 1074.9
295.65 K, x2 = 0.7822 | 1080.7
296.15 K, x2 = 0.7822 | 1080.5
296.15 K, x2 = 0.8104 | 1078
296.15 K, x2 = 0.8237 | 1076.2
296.15 K, x2 = 0.8384 | 1074.5
297.15 K, x2 = 0.7822 | 1079.7
297.15 K, x2 = 0.8104 | 1077.5
297.15 K, x2 = 0.8384 | 1073.8
298.15 K, x2 = 0.7822 | 1079.1
298.15 K, x2 = 0.8104 | 1076.8
299.15 K, x2 = 0.8237 | 1074.2
300.15 K, x2 = 0.8237 | 1073.5
303.15 K, x2 = 0.7822 | 1075.7
303.15 K, x2 = 0.8104 | 1073.4
308.15 K, x2 = 0.7822 | 1072.2
308.15 K, x2 = 0.8104 | 1069.9
308.15 K, x2 = 0.8237 | 1068.1
313.15 K, x2 = 0.7822 | 1068.7
313.15 K, x2 = 0.8384 | 1062.9
318.15 K, x2 = 0.8237 | 1061.1
323.15 K, x2 = 0.7822 | 1061.9
323.15 K, x2 = 0.8104 | 1059.5
323.15 K, x2 = 0.8384 | 1055.9
328.15 K, x2 = 0.8237 | 1054
333.15 K, x2 = 0.8104 | 1052.4
333.15 K, x2 = 0.8384 | 1048.8
338.15 K, x2 = 0.8237 | 1046.8
343.15 K, x2 = 0.8104 | 1045.3
343.15 K, x2 = 0.8384 | 1041.6

Reference: a compilation of properties of binary mixtures (doi:10.1016/j.jct.2017.05.012)
